Experimental data taken from PubChem BioAssay (Tox21).
Several values for one entry are separate records, joined by “and”; a condition that tells them apart may be missing. Identical values can stand only once. The shares of active, inactive and inconclusive entries below differ from those in the screen. Potencies of inconclusive entries are doubtful fits and often do not repeat. Activity calls are given as the source filed them. The call rests on the fitted dose curve; in most records, active means well fitted curve in the direction sought with a large enough effect in the repeat runs; inconclusive means weak or mixed curves; inactive means no such curve, though single readings can be large; an effect the other way counts as inactive or inconclusive.

Tests used:
[1] = target: Cytochrome P450 1A2 (Homo sapiens) (UniProt P05177); assay: Cytochrome P450 Family 1 Subfamily A Member 2 (CYP1A2) small molecule antagonists: luciferase reporter qHTS assay (AID 1671199); on activity change, negative = inhibition: series mostly up to about 120 µM
Summary of the method: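 Signal from luciferin formed by CYP1A2 from a proluciferin substrate is read as luminescence, expressed in relative luminescence units. Compounds sit with enzyme 10 min, NADPH-driven reaction runs 1 h, all at room temperature.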

[2] = target: Cytochrome P450 3A4 (Homo sapiens) (UniProt P08684); assay: Cytochrome P450 Family 3 Subfamily A Member 4 (CYP3A4) small molecule antagonists: luciferase reporter qHTS assay (AID 1671201); on activity change, negative = inhibition: series mostly up to about 120 µM
Summary of the method: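 Compounds in DMSO were pin-transferred onto CYP3A4 enzyme-substrate mix and held 10 min at room temperature. NADPH regenerating solution started the reaction for 1 h; luciferin detection reagent stopped it, and luminescence was read after 20 min.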

[3] = target: Voltage-gated inwardly rectifying potassium channel KCNH2 (Homo sapiens) (UniProt Q12809); assay: Human Ether-a-go-go-Related Gene (hERG) channel small molecule antagonists: fluorescence cell-based qHTS assay (AID 1671200);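 on activity change, negative = inhibition: hERG-expressing U2OS cells given a thallium stimulus after FluxOR II dye loading; series mostly up to about 77 µM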
Summary of the method: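 Channel function was assessed by thallium flux. Cells seeded the previous day and kept at 37 C took up FluxOR II dye over 1 h in the dark at room temperature, then sat another 10 min before stimulation.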
Further: nearly all actives have a fitted effect of over 50% in size.
On the % scale 0 is the no-effect control and ±100 the full control effect; potency means the concentration at half of the fitted maximal effect; tags describe the fitted curve by direction and shape.

Sequence of UniProt P08684 (P08684 whole entry, looked up): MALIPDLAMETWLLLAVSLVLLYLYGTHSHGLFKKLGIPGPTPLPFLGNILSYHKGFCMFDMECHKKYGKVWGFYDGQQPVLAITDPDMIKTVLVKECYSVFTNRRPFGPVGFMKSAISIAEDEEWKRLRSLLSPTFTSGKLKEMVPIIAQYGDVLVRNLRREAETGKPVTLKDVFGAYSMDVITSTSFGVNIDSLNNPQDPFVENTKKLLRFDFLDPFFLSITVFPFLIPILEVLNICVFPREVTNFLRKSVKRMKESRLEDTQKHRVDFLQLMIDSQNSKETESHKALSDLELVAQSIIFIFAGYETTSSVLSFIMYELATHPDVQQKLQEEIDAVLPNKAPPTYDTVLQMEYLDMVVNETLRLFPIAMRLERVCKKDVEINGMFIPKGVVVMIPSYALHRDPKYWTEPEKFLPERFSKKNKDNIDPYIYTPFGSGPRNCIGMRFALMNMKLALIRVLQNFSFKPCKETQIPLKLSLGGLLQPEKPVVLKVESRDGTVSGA
Sequence of UniProt P05177 (P05177 whole entry, looked up): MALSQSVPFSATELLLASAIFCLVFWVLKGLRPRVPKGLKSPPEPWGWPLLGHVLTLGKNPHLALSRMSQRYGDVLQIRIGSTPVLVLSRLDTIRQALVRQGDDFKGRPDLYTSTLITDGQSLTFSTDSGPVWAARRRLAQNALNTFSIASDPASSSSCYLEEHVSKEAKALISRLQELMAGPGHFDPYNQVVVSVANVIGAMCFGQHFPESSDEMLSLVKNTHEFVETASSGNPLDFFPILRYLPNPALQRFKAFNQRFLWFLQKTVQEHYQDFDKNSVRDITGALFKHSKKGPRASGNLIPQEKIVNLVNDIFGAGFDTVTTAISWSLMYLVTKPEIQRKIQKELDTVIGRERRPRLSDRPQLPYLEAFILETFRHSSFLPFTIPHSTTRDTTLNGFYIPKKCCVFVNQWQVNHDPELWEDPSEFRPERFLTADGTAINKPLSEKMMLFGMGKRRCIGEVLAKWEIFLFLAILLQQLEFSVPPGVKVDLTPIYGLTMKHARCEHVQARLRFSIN
Sequence of UniProt Q12809 (Q12809 whole entry, looked up): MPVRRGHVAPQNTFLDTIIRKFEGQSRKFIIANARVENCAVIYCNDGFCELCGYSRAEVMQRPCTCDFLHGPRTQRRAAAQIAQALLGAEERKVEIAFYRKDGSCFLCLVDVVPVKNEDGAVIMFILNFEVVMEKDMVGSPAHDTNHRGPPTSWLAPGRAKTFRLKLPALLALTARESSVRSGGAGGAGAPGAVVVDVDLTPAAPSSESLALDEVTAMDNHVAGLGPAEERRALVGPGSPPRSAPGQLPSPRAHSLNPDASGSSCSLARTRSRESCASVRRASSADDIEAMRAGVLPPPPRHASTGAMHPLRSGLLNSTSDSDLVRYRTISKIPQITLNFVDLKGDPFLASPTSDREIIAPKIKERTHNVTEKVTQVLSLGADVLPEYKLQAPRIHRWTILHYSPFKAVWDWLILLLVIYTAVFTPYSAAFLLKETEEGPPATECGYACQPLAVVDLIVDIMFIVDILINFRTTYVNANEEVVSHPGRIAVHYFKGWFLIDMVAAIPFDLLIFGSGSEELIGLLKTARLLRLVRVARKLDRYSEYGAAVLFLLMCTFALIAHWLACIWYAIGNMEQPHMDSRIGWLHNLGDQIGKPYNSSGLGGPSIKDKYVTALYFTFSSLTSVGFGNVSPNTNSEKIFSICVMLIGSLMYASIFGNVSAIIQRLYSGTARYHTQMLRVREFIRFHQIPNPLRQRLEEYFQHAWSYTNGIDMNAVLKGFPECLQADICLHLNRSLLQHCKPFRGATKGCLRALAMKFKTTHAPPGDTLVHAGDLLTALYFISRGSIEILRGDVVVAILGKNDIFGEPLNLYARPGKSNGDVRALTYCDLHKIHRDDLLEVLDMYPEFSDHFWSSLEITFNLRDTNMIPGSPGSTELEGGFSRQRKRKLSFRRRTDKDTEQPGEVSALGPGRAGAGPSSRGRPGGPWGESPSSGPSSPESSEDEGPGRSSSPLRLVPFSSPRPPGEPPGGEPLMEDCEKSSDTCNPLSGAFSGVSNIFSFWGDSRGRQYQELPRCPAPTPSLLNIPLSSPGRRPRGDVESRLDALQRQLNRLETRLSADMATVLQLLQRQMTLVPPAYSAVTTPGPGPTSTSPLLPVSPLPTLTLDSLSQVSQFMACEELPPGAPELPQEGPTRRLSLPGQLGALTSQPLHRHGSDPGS

Row | SMILES | Potency [1] | Potency [2] | Potency [3] | activity change, negative = inhibition [1]
1 | NCCCCCCN | inconclusive: 40.3 µM [inhibitor, partial curve] | inconclusive: 31.7 µM [inhibitor, partial curve] | – | –
2 | Nc1cccc(O)c1 | inconclusive: 73.1 µM [inhibitor, partial curve] | inconclusive: 5.81 µM [inhibitor, full curve] | – | –
3 | CC1CCCO1 (stereo unspecified) | inconclusive: 69.5 µM [inhibitor, partial curve, poor fit] | inactive | – | –
4 | CCCCCC=CCC=CCCCCCCCC(=O)OCC | active: 27.5 µM | – | inconclusive: 23.9 µM [inhibitor, single point] | –
5 | Cc1ccc(-n2nc(C(C)(C)C)cc2NC(=O)Nc2ccc(OCCN3CCOCC3)c3ccccc23)cc1 | inconclusive: 14.4 µM [inhibitor, partial curve] | – | inconclusive: 21.3 µM [inhibitor, partial curve] | –
6 | Cc1cc(S(=O)(=O)O)ccc1N=Nc1c(O)ccc2ccccc12 | active: 25.2 µM | – | inactive | –
7 | CC(=O)NCCO | inactive | inconclusive: 56.4 µM [inhibitor, partial curve] | – | –
8 | CC(C)OC(=O)c1cc2c(OCC(O)CNC(C)(C)C)cccc2[nH]1 (stereo unspecified) | inactive | – | inconclusive: 23.9 µM [inhibitor, single point] | –
9 | O=C(OCCOCCO)c1ccccc1Nc1cccc(C(F)(F)F)c1 | active: 12.3 µM | – | inconclusive: 10.7 µM [inhibitor, full curve] | –
10 | CCC(CN)=C(c1ccccc1)c1ccccc1 | inconclusive: 10.2 µM [inhibitor, full curve] | – | inconclusive: 23.9 µM [inhibitor, partial curve] | –
11 | OCCNCc1ccccc1 | inconclusive: 39.9 µM [inhibitor, partial curve] | – | inconclusive: 0.0035 µM [inhibitor, full curve, poor fit] | –
12 | NC(=O)/N=N/C(N)=O | active: 17.9 µM and active: 15.9 µM | inconclusive: 63.3 µM [inhibitor, partial curve] | – | –
13 | O=C1CCCCCCCCCCOCCCCO1 | active: 35.6 µM | – | inconclusive: 49 µM [inhibitor, partial curve] | –
14 | Cc1nccn1-c1ccc(Sc2cccc(C3(C(N)=O)CCOCC3)c2)cc1 | inconclusive: 39.9 µM [inhibitor, partial curve] | – | inconclusive: 54.9 µM [inhibitor, partial curve, poor fit] | –
15 | Cc1ccc(C(C)c2ccc(C)c(C)c2)cc1C | inconclusive: 35.6 µM [inhibitor, partial curve] | – | inactive | –
16 | Clc1ccc(Sc2cc(Cl)c(Cl)cc2Cl)cc1 | active: 11 µM and active: 3.99 µM | inactive | – | –
17 | Cc1c(N=C=O)cccc1N=C=O | inconclusive: 72.4 µM [inhibitor, partial curve] | inconclusive: 18.2 µM [inhibitor, full curve] | – | –
18 | Cc1ccc(NC(=O)N(C)C)cc1NC(=O)N(C)C | inconclusive: 63.3 µM [inhibitor, partial curve] | inconclusive: 35.6 µM [inhibitor, partial curve] | – | –
19 | CC(C)OC(=O)C(O)(CC(=O)O)CC(=O)O | inconclusive: 63.3 µM [inhibitor, partial curve] | inactive | – | –
20 | Oc1c(Cl)cc(Cl)c(Cl)c1Cl | active: 62 µM and active: 63.3 µM | inactive | – | –
21 | OCCCCC(O)CO (stereo unspecified) | inactive | inactive | – | –
22 | CCCCCCC(C)(C)S | inconclusive: 40.2 µM [inhibitor, partial curve] and inconclusive: 24.8 µM [inhibitor, partial curve] | inconclusive: 28.5 µM [inhibitor, partial curve] | – | –
23 | CCNc1cc(O)ccc1C | active: 12.5 µM | active: 9.92 µM | – | –
24 | CC1(C)C(=O)N(Br)C(=O)N1Cl | inconclusive: 63.3 µM [inhibitor, partial curve, poor fit] | inconclusive: 35.6 µM [inhibitor, partial curve] | – | –
25 | CCCCCCCCCCCCCOC(=O)CCSCCC(=O)OCCCCCCCCCCCCC | inconclusive: 13.3 µM [inhibitor, partial curve] | inconclusive: 13.3 µM [inhibitor, partial curve] | – | –
26 | CC1=CC[C@@H]2C[C@H]1C2(C)C | – | active: 3.98 µM | – | inactive: -16.3% [at 23.6 µM]
27 | C=C(C#N)C(=O)OCC | inconclusive: 63.3 µM [inhibitor, partial curve] | inconclusive: 63.3 µM [inhibitor, partial curve] | – | –
28 | C=CCCCCCCCCC=O | inconclusive: 71 µM [inhibitor, partial curve, poor fit] | inconclusive: 39.9 µM [inhibitor, partial curve] | – | –
